Measured values published in the supplement of paper PMC11880418.
Where a name gives a salt, the structure may show the parent alone. The list shows a part of the results. The data scatter; read single values as rough.

Experiments:
Assay in all cases: ALDHbr (CSC) cell proportion score relative to DMSO vehicle (ratio to DMSO); breast (SUM159) / gastric (MKN45) / pancreatic (PANC1) / colon cancer lines; ALDHbr cells have high ALDH activity and are rich in cancer stem cells (CSC); higher = more CSC (ALDHbr) cells remaining
Conditions in all cases: 10 µM; 72 h
MKN45 = test system: MKN45
PANC1 = test system: PANC1
SUM159 = test system: SUM159
T84 = test system: T84
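Also: High-content imaging of ALDEFLUOR-stained cells with Hoechst-labelled nuclei in 384-well plates, triplicate wells, scored as Z-score against 0.1% DMSO vehicle, negative meaning fewer ALDHbr cells.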

| Structure (SMILES) | ALDHbr (MKN45) | ALDHbr (PANC1) | ALDHbr (SUM159) | ALDHbr (T84) |
| --- | --- | --- | --- | --- |
| CN1CCN(CCCN2c3ccccc3Sc3ccc(C(F)(F)F)cc32)CC1 [Trifluoperazine dihydrochloride] | 0.589 | 1.01 | 0.506 | 0.0881 |
| CC1(C)S[C@@H]2[C@H](NC(=O)Cc3ccccc3)C(=O)N2[C@H]1C(=O)O [Benzylpenicillin sodium] | 1.01 | 0.908 | 1.04 | 0.845 |
| C[n+]1ccccc1/C=N/O [Pralidoxime chloride] | 1.14 | 0.91 | 1.21 | 0.85 |
| CNC1(C)C2CCC(C2)C1(C)C (stereo not drawn) [Mecamylamine hydrochloride] | 1.23 | 1.01 | 1.23 | 1.19 |
| C[C@H](Cc1cc2c(c(C(N)=O)c1)N(CCCO)CC2)NCCOc1ccccc1OCC(F)(F)F [Silodosin] | 0.958 | 0.995 | 0.863 | 1 |
| c1ccc2c(c1)CCCC2C1=NCCN1 (stereo not drawn) [Tetrahydrozoline hydrochloride] | 1.02 | 0.889 | 0.846 | 0.989 |
| N=C(N)NCCN1CCCCCCC1 [Guanethidine sulfate] | 1.14 | 0.782 | 1.19 | 1.15 |
| Cc1ccc(S(=O)(=O)NC(=O)NN2CC3CCCC3C2)cc1 (stereo not drawn) [Gliclazide] | 1.03 | 0.948 | 0.756 | 0.971 |
| CSc1ccc2c(c1)C(N1CCN(C)CC1)Cc1ccccc1S2 (stereo not drawn) [Methiothepin maleate] | 0.811 | 0.872 | 0.207 | 0.514 |
| CN(C)CCCO[C@@H]1[C@H]2OC(C)(C)O[C@H]2O[C@@H]1[C@H](O)CO [Amiprilose hydrochloride] | 0.966 | 0.848 | 0.928 | 0.934 |
| CNC[C@H](O)[C@@H](O)[C@H](O)[C@H](O)CO [Meglumine] | 0.997 | 1.11 | 1.16 | 1.14 |
| CC(C)N1CCN(c2ccc(OCC3COC(Cn4cncn4)(c4ccc(Cl)cc4Cl)O3)cc2)CC1 (stereo not drawn) [Terconazole] | 0.539 | 0.756 | 0.741 | 0.126 |
| CO[C@@H]1[C@@H](O[C@@H]2O[C@H](C)[C@@H](O[C@H]3C[C@@](C)(O)[C@@H](OC(=O)CC(C)C)[C@H](C)O3)[C@H](N(C)C)[C@H]2O)[C@@H](CC=O)C[C@@H](C)[C@@H](O)/C=C/C=C/C[C@@H](C)OC(=O)C[C@H]1OC(C)=O [Josamycin] | 0.594 | 0.641 | 1.4 | 0.773 |
| N=c1nc(N2CCCCC2)cc(N)n1O [Minoxidil] | 1.06 | 0.999 | 0.942 | 0.748 |
| NS(=O)(=O)c1cc2c(cc1C(F)(F)F)NCNS2(=O)=O [Hydroflumethiazide] | 0.883 | 0.835 | 0.842 | 0.986 |
| CC(C(=O)O)c1ccc2c(c1)Cc1cccnc1O2 (stereo not drawn) [Pranoprofen] | 1.04 | 0.707 | 1.12 | 1.08 |
| CCCCC(O)c1ccccc1 (stereo not drawn) [Fenipentol] | 1.03 | 1.07 | 0.942 | 0.882 |
| C[N+](C)(CCOc1ccccc1)Cc1ccccc1.O=C([O-])c1cc2ccccc2cc1O [Bephenium hydroxynaphthoate] | 0.939 | 0.895 | 1.23 | 0.993 |
| CCOC(=O)/C=C(C)/C=C/C=C(C)/C=C/c1c(C)cc(OC)c(C)c1C [Etretinate] | 0.988 | 1.04 | 0.437 | 0.895 |

| Structure (SMILES) | ALDHbr (MKN45) | ALDHbr (PANC1) | ALDHbr (SUM159) | ALDHbr (T84) |
| --- | --- | --- | --- | --- |
| CCCC1O[C@@H]2C[C@H]3[C@@H]4CCC5=CC(=O)C=C[C@]5(C)[C@H]4[C@@H](O)C[C@]3(C)[C@]2(C(=O)CO)O1 (stereo partly drawn) [Budesonide] | 1.07 | 0.698 | 0.949 | 0.793 |
| CC(N)C12CC3CC(CC(C3)C1)C2 (stereo not drawn) [Rimantadine Hydrochloride] | 1.13 | 0.938 | 1.03 | 0.978 |
| CC[N+](C)(CC)CCOC(=O)C1c2ccccc2Oc2ccccc21 [Methantheline bromide] | 1.02 | 0.944 | 0.876 | 0.943 |
| CN(C)CCOC(C)(c1ccccc1)c1ccccn1 (stereo not drawn) [Doxylamine succinate] | 1.07 | 0.777 | 1.21 | 0.893 |
| CCC(=O)OCC(=O)[C@@]1(OC(=O)CC)[C@@H](C)C[C@H]2[C@@H]3CCC4=CC(=O)C=C[C@]4(C)[C@@]3(Cl)[C@@H](O)C[C@@]21C [Beclomethasone dipropionate] | 0.977 | 0.632 | 0.89 | 1.02 |
| CC(=O)SCC(Cc1ccccc1)C(=O)NCC(=O)OCc1ccccc1 (stereo not drawn) [Racecadotril] | 0.941 | 1.02 | 1.33 | 0.884 |
| C[C@@H]1C[C@H]2[C@@H]3C[C@H](F)C4=CC(=O)C=C[C@]4(C)[C@@]3(F)[C@@H](O)C[C@]2(C)[C@@]1(O)C(=O)COC(=O)C(C)(C)C [Flumethasone pivalate] | 1.07 | 0.59 | 1.26 | 0.969 |
| CN1CCCN(C(c2ccccc2)c2ccc(Cl)cc2)CC1 (stereo not drawn) [Homochlorcyclizine dihydrochloride] | 1.11 | 0.934 | 0.583 | 0.732 |
| CC(C[N+](C)(C)C)OC(N)=O (stereo not drawn) [Bethanechol chloride] | 1.03 | 1.03 | 0.878 | 0.817 |
| CC(C)NNC(=O)c1ccncc1 [Iproniazide phosphate] | 0.989 | 0.875 | 0.931 | 0.967 |
| O=C(O)c1cccnc1 [Niacin] | 1.2 | 0.764 | 1.24 | 1.26 |
| CC(C)(C)NCC(O)c1ccc(O)c(CO)c1 (stereo not drawn) [Salbutamol] | 0.949 | 0.818 | 1.93 | 0.959 |
| C[C@H](CCC(=O)O)[C@H]1CC[C@H]2[C@@H]3[C@@H](O)C[C@@H]4C[C@H](O)CC[C@]4(C)[C@H]3CC[C@]12C [Urosiol] | 1.03 | 0.857 | 0.976 | 0.988 |
| O=C1NCC2(CCN(CCc3ccccc3)CC2)O1 [Fenspiride hydrochloride] | 0.953 | 0.956 | 0.941 | 0.914 |
| COC(=O)C1=C(C)NC(C)=C(C(=O)OCC(C)C)C1c1ccccc1[N+](=O)[O-] (stereo not drawn) [Nisoldipine] | 0.293 | 0.742 | 0.754 | 0.44 |
| N[C@@H](C(=O)N[C@@H]1C(=O)N2C(C(=O)O)=C(Cl)CC[C@H]12)c1ccccc1 [Loracarbef] | 1.2 | 0.935 | 1.03 | 0.986 |
| C[C@@H]1CCC[C@H](C)N1NC(=O)c1ccc(Cl)c(S(N)(=O)=O)c1 [Clopamide] | 0.945 | 0.862 | 1.21 | 1.13 |
| CC(=O)Oc1cc(C(F)(F)F)ccc1C(=O)O [Triflusal] | 1.13 | 0.953 | 1.15 | 0.986 |
| C[C@H]1C[C@H]2[C@@H]3CCC4=CC(=O)C=C[C@]4(C)[C@@]3(F)[C@@H](O)C[C@]2(C)[C@@]1(O)C(=O)CO [Betamethasone] | 1.09 | 0.663 | 1.18 | 0.973 |

| Structure (SMILES) | ALDHbr (MKN45) | ALDHbr (PANC1) | ALDHbr (SUM159) | ALDHbr (T84) |
| --- | --- | --- | --- | --- |
| CCCCN(CCCC)CCCOC(=O)c1ccc(N)cc1 [Butacaine] | 1.11 | 0.75 | 0.986 | 1.07 |
| CC(NCCc1ccc(O)cc1)C(O)c1ccc(O)cc1 (stereo not drawn) [Ritodrine hydrochloride] | 0.924 | 0.791 | 2.37 | 0.915 |
| C[C@]12CC[C@H]3C(=CCc4cc(O)ccc43)[C@@H]1CCC2=O [Equilin] | 0.697 | 1.05 | 1.2 | 0.909 |
| Cn1c(=O)c2c(ncn2C)n(C)c1=O [Caffeine] | 1.06 | 1.04 | 0.945 | 1.06 |
| COc1ccc(NS(=O)(=O)c2ccc(N)cc2)nn1 [Sulfamethoxypyridazine] | 0.869 | 1.05 | 1.11 | 1.06 |
| CN1CCCN=C1/C=C/c1cccs1 [Pyrantel tartrate] | 0.888 | 0.856 | 1.04 | 0.838 |
| CCN1CCCC1CNC(=O)c1cc(S(N)(=O)=O)ccc1OC (stereo not drawn) [Sulpiride] | 0.894 | 0.961 | 1.29 | 0.969 |
| CC[C@H](C)C(=O)O[C@H]1C[C@H](O)C=C2C=C[C@H](C)[C@H](CC[C@@H](O)C[C@@H](O)CC(=O)O)[C@H]21 [Pravastatin] | 1.09 | 0.941 | 1 | 1.04 |
| CC1CS(=O)(=O)CCN1/N=C/c1ccc([N+](=O)[O-])o1 (stereo not drawn) [Nifurtimox] | 0.587 | 1.04 | 0.539 | 0.721 |
| O=P(O)(O)C(O)(Cc1cccnc1)P(=O)(O)O [Risedronic acid monohydrate] | 1.1 | 0.941 | 0.975 | 1.07 |
| O=C(NC(Cc1cc(=O)[nH]c2ccccc12)C(=O)O)c1ccc(Cl)cc1 (stereo not drawn) [Rebamipide] | 0.925 | 0.973 | 1.12 | 0.956 |
| Cn1c(NCCN(CCO)CCCc2ccc([N+](=O)[O-])cc2)cc(=O)n(C)c1=O [Nifekalant] | 1.1 | 0.839 | 0.849 | 0.932 |
| c1ccc(C2CN3CCSC3=N2)cc1 (stereo not drawn) [Tetramisole hydrochloride] | 1.12 | 0.951 | 0.957 | 0.814 |
| Cc1cc2c(s1)Nc1ccccc1N=C2N1CCN(C)CC1 [Olanzapine] | 1.22 | 0.799 | 0.992 | 0.882 |
| C[C@@H]1NC(=O)NC1=O [Methylhydantoin-5-(L)] | 0.9 | 0.866 | 0.913 | 0.84 |
| O=c1[nH]c(=O)n([C@H]2C[C@H](O)[C@@H](CO)O2)cc1C(F)(F)F [Trifluridine] | 0.435 | 1.15 | 1.04 | 0.262 |
| Nc1ccc(/N=N/c2ccccc2)c(N)n1 [Phenazopyridine hydrochloride] | 0.68 | 0.329 | 1.62 | 0.877 |
| CC(C)(C)C(=O)OCOC(=O)[C@@H]1N2C(=O)[C@@H](NC(=O)[C@H](N)c3ccccc3)[C@H]2SC1(C)C [Pivampicillin] | 1.01 | 1.05 | 0.858 | 0.861 |
| C[C@]12CC[C@@H]3c4ccc(O)cc4C[C@@H](CCCCCCCCC[S+]([O-])CCCC(F)(F)C(F)(F)F)[C@H]3[C@@H]1CC[C@@H]2O (stereo partly drawn) [Fulvestrant] | 0.467 | 0.628 | 0.739 | 0.739 |
